# Laboratory results published in ChEMBL document CHEMBL5606458, “ASAP - ZIKV NS2B-NS3 protease fluorescence single point” (2024).
# Hit rate of the full screen: of about 2,700 compounds, about 160 (5.9%) showed an effect of 50% or more. The list shows a part of the results.
# Target: Nonstructural protein 3 (Zika virus) (UniProt A0A024AXB9)
# [1] = PRVABC59, Concentration 15.0 uM, Number of replicates 1.0
# [2] = PRVABC59, Concentration 50.0 uM, Number of replicates 1.0
# UniProt A0A024AXB9, sequence (A0A024AXB9 as listed by the source): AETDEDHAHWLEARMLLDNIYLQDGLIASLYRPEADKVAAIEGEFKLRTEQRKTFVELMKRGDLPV
smiles,measurement,setting,value
O=C(Nc1ccc(O)cc1[N+](=O)[O-])c1cc(Cl)ccc1NS(=O)(=O)c1ccc(Oc2ccccc2Cl)cc1,inhibition,[1],32.2%
CCN(CC)C(=O)C1CCN(C(=O)c2cc(Cl)ccc2NS(=O)(=O)c2ccc(Oc3ccccc3Cl)cc2)CC1,inhibition,[1],-1.16%
CCCCCN(CCCCC)C(=O)c1cc(Cl)ccc1NS(=O)(=O)c1ccc(Oc2ccccc2Cl)cc1,inhibition,[1],19.4%
COc1cccc(OCCCNC(=O)c2cc(Cl)ccc2NS(=O)(=O)c2ccc(Oc3ccccc3Cl)cc2)c1,inhibition,[1],14.5%
Cc1ccsc1CN(CC(C)C)C(=O)C1CCN(c2ccc(C=O)cc2)CC1,inhibition,[2],28.3%
COc1ccc(F)cc1-c1ccccc1C(=O)Nc1cnn(C)c1,inhibition,"PRVABC59, Concentration 49.5 uM, Number of replicates 2.0, Standard deviation 2.786855749304864 %",-3%
same,inhibition,"PRVABC59, Concentration 99.01 uM, Number of replicates 2.0, Standard deviation 3.2540561676160196 %",-2.51%
same,inhibition,"PRVABC59, Concentration 198.0 uM, Number of replicates 2.0, Standard deviation 1.7244181606296412 %",-2.19%
C[C@H](NC(=O)c1cc(Cl)ccc1NS(=O)(=O)c1ccc(Oc2ccccc2Cl)cc1)c1ccc(N2CCOCC2)cc1,inhibition,[1],18.7%
O=C(c1cc(Cl)ccc1NS(=O)(=O)c1ccc(Oc2ccccc2Cl)cc1)N1CCN(C(=O)C2CC2)CC1,inhibition,[1],3.67%
CN(C[C@H](O)[C@@H](O)[C@H](O)[C@H](O)CO)C(=O)C1CCN(c2ccc(C=O)cc2)CC1,inhibition,[2],14.4%
O=Cc1ccc(N2CCC(C(=O)N(CC(F)(F)F)CC(F)(F)F)CC2)cc1,inhibition,[2],20.6%
CN(C)CCN(Cc1ccccc1)C(=O)C1CCN(c2ccc(C=O)cc2)CC1,inhibition,[2],25.2%
COc1cccc([C@H](C)NC(=O)c2cc(Cl)ccc2NS(=O)(=O)c2ccc(Oc3ccccc3Cl)cc2)c1,inhibition,[1],33.8%
COc1cccc(CCNC(=O)C2CCN(c3ccc(C=O)cc3)CC2)c1OC,inhibition,[2],27.5%
O=C(NCc1c(F)cccc1C(F)(F)F)c1cc(Cl)ccc1NS(=O)(=O)c1ccc(Oc2ccccc2Cl)cc1,inhibition,[1],36.4%
O=Cc1ccc(N2CCC(C(=O)NC3CCN(Cc4ccccc4)CC3)CC2)cc1,inhibition,[2],26.4%
c1cnc2c(C3CCN(Cc4cnn5ccccc45)CC3)c[nH]c2c1,inhibition,"PRVABC59, Concentration 49.5 uM, Number of replicates 2.0, Standard deviation 0.057048794032587856 %",1.91%
same,inhibition,"PRVABC59, Concentration 99.01 uM, Number of replicates 2.0, Standard deviation 0.7157030524088295 %",5.72%
same,inhibition,"PRVABC59, Concentration 198.0 uM, Number of replicates 2.0, Standard deviation 2.453097637639096 %",10.7%
O=C(Nc1cccc(C(F)(F)F)n1)c1cc(Cl)ccc1NS(=O)(=O)c1ccc(Oc2ccccc2Cl)cc1,inhibition,[1],23.7%
O=C(c1cc(Cl)ccc1NS(=O)(=O)c1ccc(Oc2ccccc2Cl)cc1)N1CCC(c2nnc3n2CCCCC3)CC1,inhibition,[1],0.963%
O=C(NC[C@H]1COc2ccccc2O1)c1cc(Cl)ccc1NS(=O)(=O)c1ccc(Oc2ccccc2Cl)cc1,inhibition,[1],37.9%
O=C(Nc1cccc2cccnc12)C1CCNCC1,inhibition,"PRVABC59, Concentration 49.95 uM, Number of replicates 2.0, Standard deviation 0.5440976068370852 %",42.6%
same,inhibition,"PRVABC59, Concentration 99.9 uM, Number of replicates 2.0, Standard deviation 0.5440976068370852 %",92%
Cc1c(Cl)ccc(CNCc2nnc3ccccn23)c1O,inhibition,"PRVABC59, Concentration 49.5 uM, Number of replicates 2.0, Standard deviation 0.6675735430455111 %",-2.02%
same,inhibition,"PRVABC59, Concentration 99.01 uM, Number of replicates 2.0, Standard deviation 1.8143878580340882 %",-0.158%
same,inhibition,"PRVABC59, Concentration 198.0 uM, Number of replicates 2.0, Standard deviation 1.5352512085647565 %",0.893%
CCN(Cc1cnn(CC)c1)C(=O)c1cc(Cl)ccc1NS(=O)(=O)c1ccc(Oc2ccccc2Cl)cc1,inhibition,[1],19.6%
CCS(=O)(=O)c1ccc(CNC(=O)C2CCN(c3ccc(C=O)cc3)CC2)cc1,inhibition,"PRVABC59, Concentration 10.0 uM, Number of replicates 1.0",21.1%
